Laboratory results from the supplement of paper PMC7125110.
± gives the standard error. This sample is rich in variants without activity.

B1: glmS ribozyme (parent)
chain: AUAAAAGCGCCAGAACUACAGAAAUGUAGUUGACGAGGAGGAGGUUUAUCGAAUUUUCGGCGGAUGCCUCCAAA

Columns and labels:
Settings in all cases: with glucosamine-6-phosphate
glucosamine-6-phosphate [1] = variants of: B1; experiment: self-cleavage kobs at 40 uM GlcN6P; higher = faster cleavage; RNA array
In short: (§1)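 Tracking of barcoded ribozyme variants used a hybridised Cy3 probe at 37 °C, after in situ transcription by E. coli RNA polymerase on sequenced MiSeq chips. The flowed solution held 40 μM to 10 mM glucosamine-6-phosphate in HEPES/KCl/Mg(OAc)2 buffer, and imaging ran over ~14 h. kobs was taken from exponential decay fits of normalised per-tile medians, and kcat and KM from weighted Michaelis–Menten fits.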

glucosamine-6-phosphate [2] = variants of: B1; experiment: self-cleavage kobs at 640 uM GlcN6P; higher = faster cleavage; RNA array
In short: as §1

glucosamine-6-phosphate [3] = variants of: B1; experiment: self-cleavage kobs at 160 uM GlcN6P; higher = faster cleavage; RNA array
In short: as §1

glucosamine-6-phosphate [4] = variants of: B1; experiment: self-cleavage kobs at 2500 uM GlcN6P; higher = faster cleavage; RNA array
In short: as §1

glucosamine-6-phosphate [5] = variants of: B1; experiment: self-cleavage kobs at 10000 uM GlcN6P; higher = faster cleavage; RNA array
In short: as §1

Row | Variant | self-cleavage kobs at 40 uM GlcN6P (glucosamine-6-phosphate [1]) [s⁻¹] | self-cleavage kobs at 640 uM GlcN6P (glucosamine-6-phosphate [2]) [s⁻¹] | self-cleavage kobs at 160 uM GlcN6P (glucosamine-6-phosphate [3]) [s⁻¹] | self-cleavage kobs at 2500 uM GlcN6P (glucosamine-6-phosphate [4]) [s⁻¹] | self-cleavage kobs at 10000 uM GlcN6P (glucosamine-6-phosphate [5]) [s⁻¹]
1 | AUAAAAGCGCCCGAACUACAGAAAUGUAGUUGACGAGGUGGAGGUUUAUCGAAUUUUUGGGGGAUGCCUCCAAA [A12C A39U C58U C61G] | < 1e-05 |  |  |  | 
2 | AUAAAAGCGCCGGAACUACAGAAAUGUAGUUGACGAGCAGGAGGUUUAUCGAAUUUUCGGCGGAUGCCUCCAAA [A12G G38C] | < 1e-05 | < 1e-05 | < 1e-05 | < 1e-05 | < 1e-05
3 | AUAAAAGCGCCGGAACUACAGAAAUGUAGUUGACGAGAAGGAGGUUUAUCGAAUUUUCGGCGGAUGCCUCCAAA [A12G G38A] | < 1e-05 |  |  |  | < 1e-05
4 | AUAAAAGCGCUAGAACUACAGAAAUGUAGUUGACGAGGAGGAGGUUUAUCGAAUUAGCGGCGGAUGCCUCCAAA [C11U U56A U57G] | < 1e-05 | < 1e-05 |  |  | 
5 | AUAAAAGCGCCUGAACUACAGAAAUGUAGUUGACGAGGAGGAGGUUUCUCGAAUUUUCGGGGGAUGCCUCCAAA [A12U A48C C61G] | < 1e-05 | < 1e-05 | < 1e-05 | < 1e-05 | < 1e-05
6 | AUAAAAGCGCUAGAACUACAGAAAUGUAGUUCACGAGGAGGAGGUUUAUCGAAUGUUCGGCGGCUGCCUCCAAA [C11U G32C U55G A64C] | < 1e-05 |  |  |  | 
7 | AUAAAAGCGCCUGAAUUACAGAAAUGUAGUUGACGAGGAGGAGGUUUAUCGAAUUUUCGGCAGAUGCCUCCAAA [A12U C16U G62A] | < 1e-05 |  |  |  | 
8 | AUAAAAGCGCCCGAUCUACAGAAAUGUAGUUGACGAGGAGGAGGUUUAUCGAAUUUUCGGCGGAUGCCUCCAAA [A12C A15U] | 7.96e-05 ± 8.9e-06 | 0.00126 ± 0.0002 | 0.000208 ± 3.6e-05 | 0.0012 ± 0.00021 | 0.00271 ± 0.00031
9 | AUAAAAGCGCCCGAACUACAGAAAUGUAGUUGACGAGGAGGAGGUUUAUCGAAUUUUUGGCGUAUGCCUCCAAA [A12C C58U G63U] | < 1e-05 |  |  |  | < 1e-05
10 | AUAAAAGCGCCCGAACUACAGAAAUGUAGUUGCCGAGGAGGAGGUUUAUCGAAUUUUCGGCGGAUGCCUCGAAA [A12C A33C C71G] | < 1e-05 |  |  |  | < 1e-05
11 | AUAAAAGCGCCAAAACUACAGAAAUGUAGUUGACGAGGAGGAGGUUUAUUGAAUUUUCGUCGGAUGCCUCCAAA [G13A C50U G60U] | < 1e-05 |  |  |  | 
12 | AUAAAAGCGCCUGAACUACAGAAAUGUAGUUGACGAGGAGGAGGUCUAUCGAAUUUUCGGCGGAUGCCUCCAAA [A12U U46C] | 0.000227 ± 3.3e-05 | 0.00223 ± 0.00068 | 0.00106 ± 0.00025 | 0.00688 ± 0.0018 | 0.0123 ± 0.0017
13 | AUAAAAGCGCCGGAACUACAGAAAUGUAUUUGACGAGGAGGAGAUUUAUCGAAUUUUCGGCGAAUGCCUCCAAA [A12G G29U G44A G63A] | < 1e-05 |  |  |  | 
14 | AUAAAAGCGCCCGAACUACAGAAAUGUAGUUGACGAGGAGGAGGUUUACCGAAUUGUGGGCGGAUGCCUCCAAA [A12C U49C U56G C58G] | < 1e-05 | < 1e-05 |  |  | < 1e-05
15 | AUAAAAGCGCCAAAACUACAGAAAUGUAGUUGACGAGGAGGAGGUUUAUCGAAUUUUCGGCGCAUGCCUCCAAA [G13A G63C] | < 1e-05 | < 1e-05 | < 1e-05 | < 1e-05 | 
16 | AUAAAAGCGCUAGAACUACAGAAAUGUAGUCGACGAGGAGGAGGUCUAGCGAAUUAUCGGCGGAUGCCUCCAAA [C11U U31C U46C U49G U56A] | < 1e-05 |  |  |  | 
17 | AUAAAAGCGCCCGAACUACAGAAAUGUAGUUGACGAGGAGGAGGUUUAUCGAAUUUGCGGCGGAUGCCUCCAAA [A12C U57G] | < 1e-05 |  | < 1e-05 |  | 
18 | AUAAAAGCGCUAGAACUACAGAAAUGUAGUUGACGAGGAGGAGCUGUAUCGAAUUUUCGGCGGAUGCCUCCAAA [C11U G44C U46G] | < 1e-05 | < 1e-05 |  |  | < 1e-05
19 | AUAAAAGCGCCAAAACUACAGAAAUGUAGUUGACGAGGCGGAGGUUUAUCGAAUUUUCAGCGGAUGCCUCCAAA [G13A A39C G59A] | < 1e-05 |  |  |  | < 1e-05
20 | AUAAAAGCGCCCGAACUACAGAAAUGUAGUUGACGAGGAGGAGGUUUAUUGAAUUUUCGGGGGAUGCCUCCAAA [A12C C50U C61G] | < 1e-05 |  |  |  | < 1e-05
21 | AUAAAAGCGCCCGAACUACAGAAAUGUAGUUGACGAGGAGGAGGUUUAUGGAAUUUUCGGCGGAUGCCUCCAAA [A12C C50G] | 5.75e-05 ± 1.5e-05 | 5.32e-05 ± 1.5e-05 | 0.000244 ± 8.9e-05 | 8.38e-05 ± 1.9e-05 | 
22 | AUAAAAGCGCCCGAAGUACAGAAAUGUAGUUGACGAGGAGGAGGUUUAUCGGAUUUGCGGCGGAUGCCUCCAAA [A12C C16G A52G U57G] | < 1e-05 |  |  |  | 
23 | AUAAAAGCGCCAAACCUACAGAAAUGUAGUUGACGAGUAGGAGGUUUGUCGCAUUUUCGGCGGAUGCCUCCAAA [G13A A15C G38U A48G A52C] | < 1e-05 |  |  |  | < 1e-05
24 | AUAAAAGCGCCUGAACUACAGAAAUGUAGUUGACGAGGACGAGGUUUAUCGAAUUUUCGGCGGAUGCCUCCAAA [A12U G40C] | 0.000175 ± 2e-05 | 0.0014 ± 0.00029 | 0.000567 ± 9.5e-05 | 0.00529 ± 0.0011 | 0.00509 ± 0.00057
25 | AUAAAAGCGCCCGAACUACAGAAAUGUAGUAGACGAGGAGGAGGUUUGUCGAAUUUUCGGCGGAUGCCUCCAAA [A12C U31A A48G] | < 1e-05 |  |  |  | 
26 | AUAAAAGCGCCCGAACUACAGAAAUGUAGCUGACGAGGAGAAGGGGUAUCGAAUUUUCGGCGGAUGCCUCCAAA [A12C U30C G41A U45G U46G] | < 1e-05 | < 1e-05 |  | < 1e-05 | < 1e-05
27 | AUAAAAGCGCCAAAACUACAGAAAUGUAGUUGACGCGGAGCAGGUUUAUCGAAUCUUCGGCGGAUGCCUCAAAA [G13A A36C G41C U55C C71A] | < 1e-05 |  |  |  | < 1e-05
28 | AUAAAAGCGCCCGAACUACAGAAAUGUAGUUGACGAGGAGGAGGGUUAUCGAAUUUUCGGCGGUUGCCUCCAAA [A12C U45G A64U] | < 1e-05 | < 1e-05 |  |  | 
29 | AUAAAAGCGCCGGCACUACAGAAAUGUAGUUGACGAGCAGGAGGUUUAGCGAAUUUUCGUCGGAUGUCUCCAAA [A12G A14C G38C U49G G60U C67U] | < 1e-05 | < 1e-05 |  |  | 
30 | AUAAAAGCGCCAAAACUACAGAAAUGUAGUUGACGAGGAGGAGGUUUAUCGAAUUUUCGGCGGAUCCCUCCAAA [G13A G66C] | < 1e-05 |  |  |  | 
